Results as given in US20050228169A1 (published 2005).

Experiments:
[1] = target: T1, histidine-tagged KIAA1006 polypeptide (1-1186AA) (human, UniProt Q9Y2K9 1-1186); assay: GST pull-down: GST (17 µg) on glutathione-Sepharose, 6 hours at 4° C.; Western blot with anti-penta His antibody
T1 construct: Expressed in sf9 insect cells by baculovirus and purified on cobalt resin as a soluble protein; also called full length ORF of KIAA1006
T1 sequence: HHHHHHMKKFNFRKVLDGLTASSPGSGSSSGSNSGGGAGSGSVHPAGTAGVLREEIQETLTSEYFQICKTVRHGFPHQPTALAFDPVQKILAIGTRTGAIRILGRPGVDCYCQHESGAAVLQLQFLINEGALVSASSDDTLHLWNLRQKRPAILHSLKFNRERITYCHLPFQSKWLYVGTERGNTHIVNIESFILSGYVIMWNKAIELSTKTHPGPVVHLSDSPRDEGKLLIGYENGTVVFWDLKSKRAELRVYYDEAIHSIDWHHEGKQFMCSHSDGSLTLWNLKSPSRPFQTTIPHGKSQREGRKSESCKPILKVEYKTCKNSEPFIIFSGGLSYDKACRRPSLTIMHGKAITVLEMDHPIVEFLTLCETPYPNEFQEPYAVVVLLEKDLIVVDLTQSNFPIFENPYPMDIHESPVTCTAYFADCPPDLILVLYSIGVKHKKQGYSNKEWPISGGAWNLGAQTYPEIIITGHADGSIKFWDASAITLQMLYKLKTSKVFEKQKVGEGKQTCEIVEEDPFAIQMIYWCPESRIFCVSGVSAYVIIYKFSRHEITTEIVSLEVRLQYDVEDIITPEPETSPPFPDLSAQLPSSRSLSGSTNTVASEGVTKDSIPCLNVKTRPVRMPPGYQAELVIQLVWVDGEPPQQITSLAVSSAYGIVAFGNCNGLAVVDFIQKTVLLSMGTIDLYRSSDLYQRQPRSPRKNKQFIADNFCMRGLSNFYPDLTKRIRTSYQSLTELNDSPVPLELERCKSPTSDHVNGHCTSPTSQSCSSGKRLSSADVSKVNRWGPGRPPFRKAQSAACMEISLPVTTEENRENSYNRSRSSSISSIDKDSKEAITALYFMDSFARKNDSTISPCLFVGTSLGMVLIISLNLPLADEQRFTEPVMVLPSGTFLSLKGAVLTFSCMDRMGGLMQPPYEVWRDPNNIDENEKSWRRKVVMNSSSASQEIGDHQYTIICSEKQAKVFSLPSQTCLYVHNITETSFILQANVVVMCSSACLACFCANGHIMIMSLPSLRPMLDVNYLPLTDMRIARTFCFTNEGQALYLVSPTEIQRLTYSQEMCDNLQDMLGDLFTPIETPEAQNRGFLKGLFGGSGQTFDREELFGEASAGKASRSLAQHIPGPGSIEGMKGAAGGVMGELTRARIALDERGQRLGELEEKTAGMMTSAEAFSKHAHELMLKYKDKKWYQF
Procedure: (§1) KIAA1006 polypeptide (the histidine-tagged KIAA1006 polypeptide described above) and its C-terminal truncated product (the histidine-tagged C-terminal truncation product of KIAA1006 polypeptide described above) purified with a cobalt resin were respectively mixed with glutathione-Sepharose (bed volume 10 μl) to which GST (17 μg) was bound, stirred for 6 hours at 4° C., and then centrifuged. The obtained supernatants (GST-glutathione-Sepharose unadsorbed fractions) were respectively added to glutathione-Sepharose (bed volume 10 μl) to which GST-syntaxin-1a (17 μg) was bound, and after stirring for 16 hours at 4° C., the resultants were subjected to centrifugation. The fractions adsorbed to GST-glutathione-Sepharose and the fractions adsorbed to GST-syntaxin-1a-glutathione-Sepharose were eluted with SDS-PAGE sample buffer, respectively, and the binding of syntaxin-1a to KIAA1006 polypeptide or to its C-terminal truncation product was analyzed by Western blotting using anti-penta His antibody (Qiagen).
(§2) For the SDS-PAGE, 4-12% Bis-Tris Gel (NOVEX) was used. The detection of a secondary antibody that was labeled with horseradish peroxidase was carried out using ECL Western blotting detection reagents (Amersham Pharmacia Biotech).

[2] = target: T2, histidine-tagged KIAA1006 C-terminal truncated polypeptide (1-1157AA) (human, UniProt Q9Y2K9 1-1157); assay: as above
T2 construct: Expressed in sf9 insect cells by baculovirus and purified on cobalt resin; The junction of the tag is as noted for m1; also called C-terminal truncated product; C-terminal truncation product of KIAA1006 polypeptide
T2 sequence: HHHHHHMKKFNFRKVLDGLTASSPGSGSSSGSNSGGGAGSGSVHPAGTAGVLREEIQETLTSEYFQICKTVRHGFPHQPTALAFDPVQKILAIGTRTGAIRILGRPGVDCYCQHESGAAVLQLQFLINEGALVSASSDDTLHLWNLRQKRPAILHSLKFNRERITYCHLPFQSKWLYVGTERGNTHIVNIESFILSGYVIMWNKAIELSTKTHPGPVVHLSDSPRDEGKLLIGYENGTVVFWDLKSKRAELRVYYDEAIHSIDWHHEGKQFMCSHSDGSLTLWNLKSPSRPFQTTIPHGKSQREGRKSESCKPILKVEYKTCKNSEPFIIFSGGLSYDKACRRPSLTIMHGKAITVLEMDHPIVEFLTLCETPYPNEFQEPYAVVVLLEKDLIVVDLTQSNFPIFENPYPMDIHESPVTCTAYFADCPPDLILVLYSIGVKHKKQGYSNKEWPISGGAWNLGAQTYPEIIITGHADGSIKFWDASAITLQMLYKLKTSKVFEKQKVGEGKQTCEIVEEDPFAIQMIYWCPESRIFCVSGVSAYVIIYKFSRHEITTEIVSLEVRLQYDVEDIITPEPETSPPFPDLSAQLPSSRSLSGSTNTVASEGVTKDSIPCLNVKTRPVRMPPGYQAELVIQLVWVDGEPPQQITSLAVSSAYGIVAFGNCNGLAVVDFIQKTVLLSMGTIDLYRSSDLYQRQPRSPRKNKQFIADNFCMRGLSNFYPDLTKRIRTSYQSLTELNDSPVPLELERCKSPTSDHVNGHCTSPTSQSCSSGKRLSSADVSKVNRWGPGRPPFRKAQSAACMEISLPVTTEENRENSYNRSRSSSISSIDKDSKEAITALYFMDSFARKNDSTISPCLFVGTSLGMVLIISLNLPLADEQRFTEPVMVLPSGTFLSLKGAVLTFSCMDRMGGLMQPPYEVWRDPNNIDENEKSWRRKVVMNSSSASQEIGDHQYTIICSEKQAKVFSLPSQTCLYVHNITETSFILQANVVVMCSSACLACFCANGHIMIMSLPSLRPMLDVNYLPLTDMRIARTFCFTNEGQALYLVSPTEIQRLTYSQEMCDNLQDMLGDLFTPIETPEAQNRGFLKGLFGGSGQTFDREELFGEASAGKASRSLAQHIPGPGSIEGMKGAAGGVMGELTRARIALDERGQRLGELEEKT
Procedure: as §1, §2

binding result [1]: no binding
binding result [2]: no binding
B1: glutathione S-transferase (GST) (other)
chain: not shown
notes: Control protein
